Experimental data from the supplement of paper PMC10126150.
Sequences with one replicate were seen in a single cluster, so their values are uncertain.

system: ATP; assay: switch fluorescence ratio, 500 uM ATP over buffer (Cy3 cluster intensity, sum of 5 cycles each) (fold (ratio)); higher = stronger signal-on switching upon ATP binding; sequences stand for … in TCGTCGGCAGCGTCAGATGTGTATAAGAGACAGTTTTTTTTTTTTTTTTTTTTTTTTT…TC; conditions: aptamer strand: ATP DNA aptamer (quencher-CACCTGGGGGAGTATTGCGGAGGAAGG + anchor), 100 nM annealed; ATP concentration: 500 uM; one replicate
Summary of the method: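 Cy3-labelled switching-strand clusters on a modified Illumina MiSeq flow-cell were annealed to 100 nM quencher-labelled ATP aptamer and imaged first in selection buffer, then after 15 min with 500 uM ATP at 22 °C. NaOH stripping and re-annealing separated each of five buffer/ATP cycles, and clusters outside 100-1000 RFU were excluded. The fluorescence ratio sums target-cycle Cy3 intensity over buffer-cycle Cy3 intensity per cluster and averages it per switch-domain sequence.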
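Note: ATP exposure 15 min at 22 °C before imaging.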

Sequence	switch fluorescence ratio
TTAAGCCCAG	1.26
TTAAGCTGAG	1.01
TTAAGGAATC	1.03
TTAAGGGTAG	0.991
TTAAGTTAAA	1.07
TTAAGTTCGT	0.963
TTAATACCAA	1.02
TTAATATCTG	0.997
TTAATATGGG	0.997
TTAATATGTT	1.02
TTAATGCGT	0.984
TTAATGGGG	0.941
TTAATGTACT	1.04
TTAATTCACG	1.06
TTAATTGGA	1.03
TTAATTGGCA	1.01
TTAATTTTGA	0.996
TTACAAATCA	1.05
TTACAATCTC	1.01
TTACACATTA	1.1
TTACACATTT	1.02
TTACACCTGT	1.04
TTACACGAG	1.04
TTACACGGAC	1.57
TTACACTGAG	1.05
TTACAGACTA	1.15

Sequence	switch fluorescence ratio
TTACAGAGAC	1.06
TTACAGATAA	1.01
TTACAGCGCA	1.03
TTACATCTCA	1.05
TTACCACACT	1.03
TTACCACGGC	1.1
TTACCATCCA	1.01
TTACCCTCCC	1.28
TTACCGACGA	1.7
TTACCGGCCT	1.03
TTACCTACTG	1.34
TTACGAGTG	1.02
TTACGATTAT	1.01
TTACGATTCT	0.987
TTACGCCATC	3.3
TTACGCGAAT	1.06
TTACGGCATC	2.36
TTACGGGCCA	1.05
TTACTACAGT	1.02
TTACTCTGG	1.17
TTACTGGCCT	1.07
TTACTGGTTT	0.998
TTACTGTGTC	0.98
TTACTTATGG	1.02
TTAGAAGCAG	0.971
TTAGAATCCT	1.04

Sequence	switch fluorescence ratio
TTAGACACGG	1.04
TTAGAGGGCT	1.02
TTAGATGCCT	1.11
TTAGATTAC	1.03
TTAGATTCAG	0.956
TTAGCAACCT	1.69
TTAGCACC	1.06
TTAGCACGAG	1
TTAGCACTGA	1.08
TTAGCACTGG	1.06
TTAGCACTGT	1.08
TTAGCGTCAA	1.03
TTAGCTAATT	1.03
TTAGCTGCGC	0.928
TTAGCTGGAG	1.03
TTAGCTGGGT	1.02
TTAGCTTA	1.01
TTAGGACGTG	1.05
TTAGGCCTTA	0.972
TTAGGCTCAT	1.02
TTAGGCTGGT	1.03
TTAGGGCCCC	1.06
TTAGGGCCTG	1.02
TTAGGGCGTA	0.985
TTAGGGGCAT	1.05
TTAGGGTGAC	1.01

Sequence	switch fluorescence ratio
TTAGGTAATG	0.997
TTAGGTACGT	0.996
TTAGGTCCAT	1.29
TTAGGTGCTA	1.73
TTAGTAAGT	1.01
TTAGTCACGG	0.987
TTAGTCCGAT	0.988
TTAGTCGTAT	0.979
TTAGTGCGCA	0.999
TTAGTGGTGA	0.991
TTAGTTGAGC	1.08
TTATAAAAAT	1.02
TTATAAACC	1.05
TTATAAATTA	0.992
TTATAAGCCC	1.04
TTATAATAT	1
TTATAATTAA	1
TTATAATTGG	1.02
TTATAGCTGA	1.04
TTATAGGGA	1
TTATAGGTA	1
TTATAGTGTG	0.978
TTATCAGAG	1.08
TTATCTAAGG	1.02
TTATCTGCTC	1.02
TTATCTGTGG	0.995

Sequence	switch fluorescence ratio
TTATCTTCGT	1.03
TTATGAAGTC	0.985
TTATGATCGG	1.01
TTATGCGCCG	1.07
TTATGCTTGT	1.04
TTATGGCT	0.993
TTATGGGCGC	1.03
TTATGGGTTC	0.996
TTATGGTCTC	0.945
TTATGGTGTG	0.994
TTATGTAGTT	0.992
TTATGTATGG	0.976
TTATGTCAAG	1.01
TTATTAAGT	1.02
TTATTATGAG	1.02
TTATTCCCTA	1
TTATTGGATC	0.823
TTATTGGCTA	0.978
TTATTGGGAA	2.04
TTATTTAGTA	1.04
TTATTTCGGT	1.01
TTATTTTCTT	1
TTCAAAGTCC	1.03
TTCAAATT	1.02
TTCAAATTA	1
TTCAACGATT	0.981

Sequence	switch fluorescence ratio
TTCAACTAGT	0.987
TTCAATCCAT	0.97
TTCAATCTGG	1
TTCACAAAAG	0.939
TTCACACAGG	2.72
TTCACAGTTT	1.01
TTCACGCGAC	1.66
TTCACGGGTA	1.03
TTCACGTATT	1.2
TTCACGTTA	1.28
TTCACGTTAG	1.03
TTCACTAGTC	1
TTCACTCTGC	1.45
TTCAGATATA	1.01
TTCAGCAAAC	4.01
TTCAGCGGTT	1.06
TTCAGGCATA	1.03
TTCAGGTTA	0.981
TTCAGTGAGA	0.997
TTCAGTGTAA	1
TTCATCGGTA	0.993
TTCATGCCTA	1.01
TTCATGGGTA	0.98
TTCATGTGCG	0.946
TTCATTAGAA	0.993
TTCATTCTTT	0.978

Sequence	switch fluorescence ratio
TTCATTGCT	0.963
TTCATTGCTC	1
TTCATTGTTG	0.962
TTCCAAACGT	1.05
TTCCACGTCT	1.36
TTCCATTGGG	0.975
TTCCCAACAA	1.02
TTCCCCATAG	1.1
TTCCCCGAA	1.12
TTCCCGAAGG	1.01
TTCCCGGGT	1.01
TTCCCTACAT	1.02
TTCCCTCT	1.05
TTCCCTTGTA	0.958
TTCCGCCGGC	1.27
TTCCGGCCTC	1.79
TTCCGGTCGG	1.03
TTCCGTAAAG	1.01
TTCCGTGTC	1.08
TTCCGTTCTC	1.14
TTCCGTTCTG	0.986
TTCCTAAAAC	1
TTCCTCACTT	1.13
TTCCTCCGGA	1.16
TTCCTGATAG	1.03
TTCCTTAATT	0.99

Sequence	switch fluorescence ratio
TTCCTTACTC	1.91
TTCCTTTTGG	0.975
TTCGAAATCG	1.02
TTCGAAGAAA	1.02
TTCGAGATGA	0.987
TTCGAGGAGT	1.01
TTCGCACTGA	1.12
TTCGCAGGTA	0.997
TTCGCATATA	1.19
TTCGCCAAAG	1.02
TTCGCCAGCA	1.11
TTCGCCTGCG	0.953
TTCGCGAAGG	1.01
TTCGCGAGAT	1.14
TTCGCGCAAA	1.27
TTCGCTAATG	1.12
TTCGCTACGC	1.07
TTCGCTGTAG	1.08
TTCGGAACGT	1
